The values that follow come from article PMC4336329 (PLoS ONE, 2015).

The campaign covered roughly 310,000 compounds. About 2,200 (0.71%) showed an effect of 50% or more. The effect is printed as a negative number. The list shows a part of the results.

For the assay, the target named is human ether-à-go-go-related gene (hERG) potassium channel (human, UniProt Q12809). The experiment in a line: primary screen, population patch clamp on CHO cells stably expressing hERG.
human ether-à-go-go-related gene (hERG) potassium channel, sequence (Q12809 whole entry, looked up): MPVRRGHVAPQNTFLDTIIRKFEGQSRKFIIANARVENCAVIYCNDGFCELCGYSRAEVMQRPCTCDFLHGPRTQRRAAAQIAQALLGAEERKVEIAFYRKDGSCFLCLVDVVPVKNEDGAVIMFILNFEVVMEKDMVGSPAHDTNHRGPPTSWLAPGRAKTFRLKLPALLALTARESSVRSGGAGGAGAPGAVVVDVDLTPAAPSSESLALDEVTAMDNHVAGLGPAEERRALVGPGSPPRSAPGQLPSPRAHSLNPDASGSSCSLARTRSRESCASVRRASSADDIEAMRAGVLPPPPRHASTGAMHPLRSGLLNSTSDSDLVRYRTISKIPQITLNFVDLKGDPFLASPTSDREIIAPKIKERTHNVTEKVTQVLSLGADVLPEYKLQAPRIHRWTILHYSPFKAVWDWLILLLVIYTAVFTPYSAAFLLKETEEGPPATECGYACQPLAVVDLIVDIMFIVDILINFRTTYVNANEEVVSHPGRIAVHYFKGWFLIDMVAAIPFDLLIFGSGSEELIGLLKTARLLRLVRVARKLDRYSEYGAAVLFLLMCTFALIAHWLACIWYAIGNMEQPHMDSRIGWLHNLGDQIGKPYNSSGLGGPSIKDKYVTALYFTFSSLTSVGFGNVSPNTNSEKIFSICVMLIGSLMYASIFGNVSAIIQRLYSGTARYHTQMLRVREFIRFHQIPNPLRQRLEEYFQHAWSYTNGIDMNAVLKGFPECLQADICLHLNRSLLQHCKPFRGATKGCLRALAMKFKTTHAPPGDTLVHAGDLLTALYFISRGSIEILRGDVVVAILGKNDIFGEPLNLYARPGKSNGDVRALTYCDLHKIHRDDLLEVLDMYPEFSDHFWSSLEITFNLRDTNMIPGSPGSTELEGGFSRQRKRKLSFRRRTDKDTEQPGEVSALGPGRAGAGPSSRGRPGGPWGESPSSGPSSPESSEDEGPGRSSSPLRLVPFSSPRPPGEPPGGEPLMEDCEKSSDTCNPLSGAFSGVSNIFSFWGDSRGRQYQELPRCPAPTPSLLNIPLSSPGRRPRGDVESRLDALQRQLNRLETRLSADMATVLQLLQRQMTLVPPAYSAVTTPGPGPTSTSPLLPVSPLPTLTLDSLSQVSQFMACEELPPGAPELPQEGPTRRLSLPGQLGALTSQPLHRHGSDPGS
On to `CNC(C)Cc1ccccc1Sc1ccc(O)cc1.Cl` (centres unmarked), for which the “hERG current change (%, negative = inhibition) at 1uM” value is reported as -21.1%.

With `Cn1c(SCC(=O)c2c(N)n(C)c(=O)n(C)c2=O)nnc1-c1ccc(F)cc1`, the “hERG current change (%, negative = inhibition) at 1uM” value turned out to be 13.5%.

`CCCCC(=O)OCc1c(-c2ccccc2)ncc2ccccc12`: the “hERG current change (%, negative = inhibition) at 1uM” value amounted to 11.4%.

Consider `Cc1ccc(C(=O)NCC2CCCN2S(=O)(=O)c2ccc(C)cc2)cc1` (centres unmarked), for which the “hERG current change (%, negative = inhibition) at 1uM” value is 3.74%. For the compound `CCC1S/C(=N\S(=O)(=O)c2cccs2)N(C2CCCCC2)C1=O` (centres unmarked), the “hERG current change (%, negative = inhibition) at 1uM” value was found to be 12.1%.

For the compound `COc1ccc(NC(=O)COC(=O)c2n[nH]c3ccccc23)c(OC)c1`, the “hERG current change (%, negative = inhibition) at 1uM” value was 13.5%. The same measure for `Br.N#Cc1ccc(CSC2=NCCN2)cc1`: 5.51%. The same measure for `Cc1nn(Cc2ccccc2)c(C)c1C(=O)OCC(=O)NCc1ccco1`: -7.85%; for `Cn1c(=O)c(=O)n(C)c2cc([N+](=O)[O-])c(N3CCOCC3)cc21`: 8.95%; for `Cc1ccnc(NC(=O)CS(=O)(=O)c2ccccc2)c1`: 7.52%.

Take `Cc1ccc(S(=O)(=O)NNC(=O)C2CCCCC2)cc1`: the “hERG current change (%, negative = inhibition) at 1uM” value turned out to be 12.5%. Regarding `COC(=O)COc1ccc(-n2cnnn2)cc1`, the “hERG current change (%, negative = inhibition) at 1uM” value came out at 17.7%.

Take `CC(=O)Nc1ccc(S(=O)(=O)NCC2CCC(C(=O)NC(C)c3ccccc3)CC2)cc1` (centres unmarked): the “hERG current change (%, negative = inhibition) at 1uM” value stood at 11.7%. On to `COC1=CC(=O)CC(C)C12Oc1cc(OC)cc(OC)c1C2=O` (centres unmarked), for which the “hERG current change (%, negative = inhibition) at 1uM” value is recorded as 6.8%. The same measure for `Cc1cccc(S(=O)(=O)C(C#N)c2nc3ccccc3nc2N2CCCC2)c1` (centres unmarked): -12.6%.

Consider `Cc1cc(C)c2c(n1)SCC(=O)N2CC(=O)Nc1cc(F)ccc1F`, for which the “hERG current change (%, negative = inhibition) at 1uM” value is given as 3.81%. Turning to `CC1CCN(c2nc(-c3ccccc3)cc(C(F)(F)F)n2)CC1`, the “hERG current change (%, negative = inhibition) at 1uM” value stood at 2.64%. Next, `C/C(=N\NC(=O)C1CC1)c1ccc(Cl)cc1`: 12.7%; `Cc1cc(N2CCN(C(=O)c3ccco3)CC2)n2nc(-c3cccc(Cl)c3)cc2n1`: 11.5%.

For `Cc1ccc(O)c(C2=NOC(O)(C(F)(F)F)C2)c1` (centres unmarked), the “hERG current change (%, negative = inhibition) at 1uM” value stood at 1.79%. The same measure for `O=C(O)CCCC(=O)N1CCc2cc(S(=O)(=O)NCc3ccc(F)cc3)ccc21`: -1.1%; for `O=C(CSc1nc2ccccc2o1)N1c2ccccc2Sc2ccc(Cl)cc21`: 2.38%. The same measure for `CCOC(=O)N1N=C(c2ccc(OC)cc2)CC1(O)C(F)(F)F` (centres unmarked): 18.5%; for `Cc1ccc(S(=O)(=O)/C(C#N)=C/c2c(Oc3ccc(Cl)cc3)nc3c(C)cccn3c2=O)cc1`: 12.7%; for `CC(=O)Nc1nc(C2COc3ccccc3O2)cs1` (centres unmarked): 13%. `O=C(c1nc2ccccn2c1CN1CCCC(OCc2ccccc2)C1)N1CCCC1` (centres unmarked): the “hERG current change (%, negative = inhibition) at 1uM” value was -25.7%. The same measure for `CSc1nc2[nH]ncc2c(=O)[nH]1`: 0.469%; for `Cc1ccc(C(=O)NCc2ccc(N3CCN(C(=O)OC(C)(C)C)CC3)cc2)cc1`: 11.4%; for `CCC(=O)N(C1=C(NC)C(=O)c2ccccc2C1=O)C(C)C`: 7.58%. As to `Cc1ccc(C)c(NC(=O)CSc2nc(C)cc(C)c2C#N)c1`, the “hERG current change (%, negative = inhibition) at 1uM” value is on record as 12.2%. The same measure for `N#CC(Cc1ccccc1OC(F)F)c1nc2ccccc2[nH]1` (centres unmarked): -0.805%. Next, `CCCCc1nc2ccccc2c(NC(=O)CN(CC)CC)c1CCC.O=C(O)C(=O)O`: -6.48%. Next, `C/C(CC(=O)Nc1cccc(C(F)(F)F)c1)=N\NC(=O)Cc1ccccc1`: 12.9%. Take `CCCP(=O)(CCC)CCP(=O)(c1ccccc1)c1ccccc1`: the “hERG current change (%, negative = inhibition) at 1uM” value is listed as 11.1%. The same measure for `O=C(CSc1nc2[nH]ncc2c(=O)[nH]1)NCCc1ccccc1`: 17.8%; for `Cc1cc(NC(=NC2CC2)c2ccccc2F)n(-c2ccccc2)n1`: 1.72%; for `COc1cc(CCC(=O)OCC(=O)Nc2ccc(Br)cc2F)cc(OC)c1OC`: 12.9%.

As for `CC(=O)c1cc(F)c(N2CCN(c3ccc([N+](=O)[O-])cc3F)CC2)cc1C`, the “hERG current change (%, negative = inhibition) at 1uM” value was -5.4%. Consider `Oc1ccc(N=Nc2ccccc2)o1`, for which the “hERG current change (%, negative = inhibition) at 1uM” value turned out to be 19.1%. Next, `N#CCCN(C(=O)COc1ccc(Cl)cc1Cl)c1ccccc1`: 7.12%; `CC12CCC(=O)N1C(C(=O)Nc1nc(-c3ccc(F)cc3)cs1)CS2` (centres unmarked): 9.66%. Next, `CCOC(=O)c1c(NC(=O)C2=C(C)NC(=S)NC2c2ccc(CC)cc2)sc(C)c1C` (centres unmarked): 0.698%; `CCOc1ccc2ccccc2c1/C=N/NC(=O)CNC(=O)c1ccccc1O`: 7.53%.

Regarding `O=C(C1COc2ccccc2O1)N1CCN(c2ccccc2O)CC1` (centres unmarked), the “hERG current change (%, negative = inhibition) at 1uM” value is 7.16%. As to `CSc1ccc(CN(C)C(=O)c2cccc(S(=O)(=O)NCc3ccccc3)c2)cc1`, the “hERG current change (%, negative = inhibition) at 1uM” value was found to be 12.3%. The same measure for `O=C1C=C(c2cccc(Br)c2)C[C@@H](c2ccc(F)cc2)C1`: 14.8%; for `CSc1ccccc1NC(=O)CN1CCN(Cc2ccccc2)CC1`: -17.4%; for `O=C(/C=C/c1ccco1)N(Cc1ccccc1F)C1CCS(=O)(=O)C1` (centres unmarked): 6.88%. As for `Nc1nonc1-n1nnc(C(=O)N/N=C/c2ccncc2)c1-c1ccccc1`, the “hERG current change (%, negative = inhibition) at 1uM” value is on record as 11.2%. Turning to `CC1=NNC(=O)C1CCC(=O)N/N=C\c1ccc(Cl)c(Cl)c1` (centres unmarked), the “hERG current change (%, negative = inhibition) at 1uM” value stood at 4.35%. With `CCN(CC)CCCNC(=O)c1cc2nc3c(c(C(F)(F)F)n2n1)CCc1ccccc1-3`, the “hERG current change (%, negative = inhibition) at 1uM” value amounted to 2.32%. Next, `CC(=O)Nc1ccccc1C(=O)OCc1ccccc1F`: 12%; `Cc1cc(C)cc(C(=O)N2CCC3(CC2)NCCc2[nH]cnc23)c1`: 17.9%; `O=C(Nc1nnc(C2CCCO2)s1)c1cccs1` (centres unmarked): 4.73%. The same measure for `CCn1cnc2c1c(=O)n(CC(=O)Nc1cc(C)on1)c(=O)n2Cc1ccccc1`: 11.8%; for `O=C(CC(=O)NCc1cccnc1)NCc1cccnc1`: 11.8%; for `Cc1cc(C)c(S(=O)(=O)NCc2csc(C)n2)c(C)c1`: 15.7%. The same measure for `CCS(=O)(=O)N1CCN(c2ncnc3sc(C)c(C)c23)CC1`: -14.2%. Take `CC1CN(Cc2ccccc2)c2nc3c(c(=O)[nH]c(=O)n3C)n2C1` (centres unmarked): the “hERG current change (%, negative = inhibition) at 1uM” value is reported as 7.43%.

For `CCCn1c(-c2ccc(F)cc2)cnc1SCC(=O)O`, the “hERG current change (%, negative = inhibition) at 1uM” value is 13.4%. Next, `CCCn1nc(Oc2nc(NC(C)C)nc(N(C)C)n2)ccc1=O`: 19%; `O=C(c1ccc([N+](=O)[O-])cc1)N1CCN(C(=O)C2CCCCC2)CC1`: -1.12%. Next, `C=CCOc1c(Br)cc(/C=C2/C(=O)ON=C2C)cc1OC`: 12.7%. Next, `c1ccn2c(SCc3cn4ccsc4n3)nnc2c1`: 2.67%. For `CC(C)n1c(N2CCN(C(=O)NCc3ccccc3)CC2)nc2ccccc21`, the “hERG current change (%, negative = inhibition) at 1uM” value is listed as -24.4%. With `CC(C)CC(NC(=O)CCl)c1ccccc1` (centres unmarked), the “hERG current change (%, negative = inhibition) at 1uM” value is recorded as 2.74%. Next, `OCCC1CN(Cc2ccn[nH]2)CCN1Cc1ccc(F)c(F)c1` (centres unmarked): 8.07%; `COCCCNC(=S)N(Cc1ccccc1)Cc1nc2ccccc2c(=O)[nH]1`: 4%; `O=C(CNC(=O)Cc1ccccc1)NCC(=O)OCC(=O)c1ccccc1Cl`: -0.783%. Next, `O=C(COC(=O)CSc1nnc(-c2ccc(Cl)cc2)o1)Nc1cc(Cl)ccc1Cl`: 3.13%. As to `O=C(CP(=O)(c1ccccc1)c1ccccc1)N1CCOCC1`, the “hERG current change (%, negative = inhibition) at 1uM” value stood at 6.14%. Next, `O=C(O)C1C2C=CC(C2)C1C(=O)NCc1ccco1` (centres unmarked): 7.88%; `Cc1c(C(=O)Nc2cccc3cccnc23)oc2ccccc12`: 12.8%; `Cc1ccc(NC(=S)Nc2ccc3cn[nH]c3c2)cc1C`: -12.1%. Next, `C[C@@H](C(=O)Nc1ccccc1N1CCOCC1)N1C(=O)C2CC=CCC2C1=O` (some centres unmarked): 12.5%.

For `CCc1ccccc1NC(=O)CSc1nnc([C@H](CCSC)NC(=O)OC(C)(C)C)o1`, the “hERG current change (%, negative = inhibition) at 1uM” value is listed as 2.24%.

Consider `Cc1ccc(C(c2nnnn2C2CCCC2)N2CCN3CCCC3C2)cc1` (centres unmarked), for which the “hERG current change (%, negative = inhibition) at 1uM” value is on record as -3.7%. Next, `COc1ccc(CC(=O)NNC(=S)Nc2ccccc2)cc1Cl`: 6.48%; `CCOC(=O)CSc1nnc(Cn2nnc3ccccc32)n1-c1ccc(F)cc1`: 5.76%. As to `COc1ccc(/C=C/C(=O)OCC(=O)Nc2cccc(C(C)=O)c2)cc1`, the “hERG current change (%, negative = inhibition) at 1uM” value turned out to be 5.93%.

For the compound `O=C(O)c1sc2cc(Cl)ccc2c1Cl`, the “hERG current change (%, negative = inhibition) at 1uM” value amounted to 13.5%. The same measure for `Cc1ccc(CCN2CC(C(=O)NCCC(C)C)CC2=O)cc1` (centres unmarked): 13.2%; for `O=C(NCCCN1CCOCC1)c1ccc(Br)s1`: -4.03%; for `Cc1ccccc1COc1ccc(/C=N/NC(=O)c2nnn(-c3nonc3N)c2CN2CCC(C)CC2)cc1`: 13.8%. Next, `CCOc1ccc(N(CC)C(=O)COc2cc(=O)n(CC)c3ccccc23)cc1`: -3.44%; `COc1cc(/C=N/NC(=O)c2ccc3c(c2)OCCO3)c(Br)c(Br)c1O`: 14.7%; `CC(CCc1ccccc1)NC(=O)CSc1cccc[n+]1[O-]` (centres unmarked): 9.99%. Next, `O=c1c2ccccc2nc2n1C(CBr)CS2` (centres unmarked): 12.4%; `O=C(Nn1c(O)c(C=C2N=c3ccccc3=N2)sc1=S)c1cccc(Cl)c1`: 2.6%. In the case of `CC1CC(C)(C)OC(C[N+]2(C)CCCCC2)O1.[I-]` (centres unmarked), the “hERG current change (%, negative = inhibition) at 1uM” value is 16.1%. Next, `Cc1cccc(OCc2nnc3n2CCCCC3)c1`: 13.9%; `O=C(O)Cn1cc(C(=S)N2CCOCC2)c2ccccc21`: -2.36%.
